For 22 compounds, cell viability results are on record in the supplement of paper PMC9588766.

Each structure is given as a SMILES string. ± gives the standard deviation of the averaged measurements. Whole data set: some 2,000 compounds, median “cell viability relative to DMSO control (compound alone)” near 0.98, cut for the lowest 2% near 0.23. The list shows a part of the results.

This test concerns PDC-DUC18828. The test can be described thus: cell viability relative to DMSO control (compound alone) (fraction); PDC-DUC18828 is a patient-derived cholangiocarcinoma cell line; higher = less growth inhibition. The note with it: 1 µM; 72 h. The protocol:
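Selleck Bioactive library screen in the patient-derived FGFR2-G3BP2 fusion-positive ICC cell line PDC-DUC18828 (500 cells/well). Each compound was tested at 1 uM alone, in triplicate, for 72 h. Viability was read by CellTiter-Glo and normalised to plate DMSO controls.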
Consider `Nc1ccn([C@@H]2O[C@H](CO)[C@@H](O)C2(F)F)c(=O)n1` [Gemcitabine], for which the cell viability is 0.267 ± 0.021.

For the compound `COc1ccccc1N1CCN(CCN(C(=O)C2CCCCC2)c2ccccn2)CC1`, the cell viability worked out at 1.05 ± 0.057.

As to `CC(=O)O[C@@]12CO[C@@H]1C[C@H](O)[C@@]1(C)C(=O)[C@H](O)C3=C(C)[C@@H](OC(=O)[C@H](O)[C@@H](NC(=O)OC(C)(C)C)c4ccccc4)C[C@@](O)([C@@H](OC(=O)c4ccccc4)[C@H]21)C3(C)C` [Docetaxel], the cell viability is 0.28 ± 0.013.

In turn, `O=C(/C=C/c1ccccc1)NC(NC(=S)Nc1cccc2cccnc12)C(Cl)(Cl)Cl` (configuration not stated) [Salubrinal] displayed a cell viability of 0.992 ± 0.05.

As to `O=C(c1ccc(Nc2nccc(-c3cc4ccccc4s3)n2)cc1)N1CCC(N2CCCC2)CC1` [IKK-16 (IKK Inhibitor VII)], the cell viability is 0.908 ± 0.058.

`Clc1ccc(CSC(Cn2ccnc2)c2ccc(Cl)cc2Cl)cc1` (configuration not stated) [Sulconazole Nitrate] showed a cell viability of 0.982 ± 0.017.

The compound `Nc1ncnc2c1ncn2[C@@H]1O[C@H](CO)[C@@H](O)[C@H]1O` [Adenosine] showed a cell viability of 1.08 ± 0.015.

In turn, `Cc1cc(C)c(Nc2ccnc(Nc3ccc(C#N)cc3)n2)c(C)c1` [Dapivirine (TMC120)] displayed a cell viability of 0.878 ± 0.039.

`Cc1cc(/C=C2/SC(=S)NC2=O)c(C)n1-c1cccnc1` [Optovin] returned a cell viability of 0.96 ± 0.037.

`COc1cc(C(=O)O)ccc1NC(=O)[C@@H]1N[C@@H](CC(C)(C)C)[C@](C#N)(c2ccc(Cl)cc2F)[C@H]1c1cccc(Cl)c1F` [Idasanutlin (RG-7388)] registered a cell viability of 0.987 ± 0.075.

As to `O=C(O)C(O)Cc1ccc(O)c(O)c1` (configuration not stated) [Sodium Danshensu], the cell viability was 0.885 ± 0.031.

In turn, `N[C@@H](Cc1cc(I)c(Oc2cc(I)c(O)c(I)c2)c(I)c1)C(=O)O` [L-Thyroxine] had a cell viability of 0.933 ± 0.034.

Take `CC1(C)CCC(C)(C)c2cc(NC(=O)c3ccc(C(=O)O)cc3)ccc21` [Tamibarotene]: the cell viability came out at 0.986 ± 0.013.

Take `O=C1Nc2ccccc2/C1=C1/Nc2ccccc2C1=O` [Indirubin]: the cell viability was found to be 0.934 ± 0.041.

Compound `Nc1cccc2c1C(=O)N(C1CCC(=O)NC1=O)C2=O` (configuration not stated) [Pomalidomide] registered a cell viability of 1.05 ± 0.021.

For `Oc1ccc(OC2CCCCO2)cc1` (configuration not stated) [Deoxyarbutin], the cell viability came out at 0.999 ± 0.071.

`C[C@H](Cc1cc2c(c(C(N)=O)c1)N(CCCO)CC2)NCCOc1ccccc1OCC(F)(F)F` [Silodosin] yielded a cell viability of 1.06 ± 0.057.

As to `CN(C)CCOc1ccc(-c2nc(-c3ccncc3)c(-c3ccc4c(c3)CC/C4=N\O)[nH]2)cc1`, the cell viability came out at 1.17 ± 0.06.

Turning to `Cc1ccc(-n2sc(=O)n(Cc3ccc(F)cc3)c2=O)cc1`, the cell viability amounted to 0.937 ± 0.014.

The compound `O=C(NCCN1CCOCC1)c1ccc(Cl)cc1` yielded a cell viability of 0.954 ± 0.05.

With `Cc1cc(Cl)ccc1OCCCC(=O)NO` [Droxinostat], the cell viability came to 0.995 ± 0.03.

Take `C/C(=C\C(=O)Nc1ccccc1C(=O)O)c1ccc2ccccc2c1`: the cell viability came out at 1.07 ± 0.02.
